# Assay results taken from paper PMC12136788.
# Some of the results follow.
# B1: chr17:44319658:44319728:-|3pUTR|ENSG00000013306|msi1_unk|total|mutant (ssRNA)
# RNA: GGGAGUUCUACAGUCCGACGAUCUCCCUGUGUUUGCUGCCGCUGGGCAUGUCUCCAGGAACCAAGAAGCCCUCAGCCUGGUGCCGUCUCCCUGACCCUUGUUAAUUCCUUAAGUCUAAAGAUGAUGAACUUCUGCCUGGUGCCCAACAGAGGAUUGAGCAUCA
# B2: ENSG00000124766:be:win_1151|CDS|ENSG00000124766|bound_else_gene|NA|bound_elsewhere_windowed (ssRNA)
# RNA: GGGAGUUCUACAGUCCGACGAUCCCCACUCCUCCUCUUCCUCCUCCUCGGGCUCCUCGUCCUCCGACGACGAGUUCGAAGACGACCUGCUCGACCUGAACCCCAGCUCAAACUUUGAGAGCAUGUCCCUGGGCAGCUUCAGUUCAACAGAGGAUUGAGCAUCA
# B3: chr7:32869000:32869101:-|3pUTR|ENSG00000170852|msi1|total|mutant (ssRNA)
# RNA: GGGAGUUCUACAGUCCGACGAUCAAUUGAGAAACUUUAUGUGUAAUCAUGAGAGUAUAAGAAUCUGGAUUAUCUAACAUUGUCCGCCCUGUGUAUGUACAGUUCAAAAAGUUCAUUUAUAAAAGCCGUUUCCUGUUCCCCGUGCAACAGAGGAUUGAGCAUCA
# B4: chr13:19825080:19825183:-|CDS|ENSG00000132950|unk|FALSE|unique (ssRNA)
# RNA: GGGAGUUCUACAGUCCGACGAUCUUUUAGAGAAGAAAAUGAGAAACAAUUAUAUGGAUCGUCAAAUACACUUUUGAAAAAAAUAGAGGGAAUCCCAGAAAAAAAGGAAAAGACUUCACAGCUACAGCUUUCAGUAGAAUGUGGCAACAGAGGAUUGAGCAUCA
# B5: chr12:32755127:32755228:-|CDS|ENSG00000139131|unk|total|mutant (ssRNA)
# RNA: GGGAGUUCUACAGUCCGACGAUCCUUCUAUUACCUCUUCCAGCGUUAUGGAUGCAGGGUCCAGCUGGGCGGAUCUGAUCAACCCGGCAACAUCAUGUCCGGAUAUGAGUUCAUCAACAAGUAAGUGCCUUUAAACCUUGGGGACAACAGAGGAUUGAGCAUCA
# B6: chr5:72198766:72198867:+|CDS|ENSG00000131711|msi1_unk|total|mutant (ssRNA)
# RNA: GGGAGUUCUACAGUCCGACGAUCUUCUACCUCUGCAGUCAAAGAGAAAACAGCAACUUGCCACAGUUCCUCUUCUCCACCAACCGAUGCAGCAUCCGCAGAGCCCUAUGGCUUCCGUGCCUCAGUGUUAUUCGAUACAAUGCACAACAGAGGAUUGAGCAUCA
# B7: chr16:84129640:84129741:-|CDS|ENSG00000103160|unk|FALSE|unique (ssRNA)
# RNA: GGGAGUUCUACAGUCCGACGAUCCUUGCAAUAUGAAUAUGCCUCUAAAGGAAUCUUUGUACAGAGUCUAAUCCCUUUCUAUGUAGCCACCAGCAUGACAGCACCCAGCAACUUUCUGCACAGGUGCUCGUGGUUGGUGCCUUCCAACAGAGGAUUGAGCAUCA
# B8: chr11:8980169:8983969:-|three_prime_utr|ENSG00000175352|control|control|control (ssRNA)
# RNA: GGGAGUUCUACAGUCCGACGAUCAAUUAUACUACAAAUCCACCCUUCCCCACACCCAGAGUUCAUCACCCCACAAAACUCUGUAGUGCACACAUCAGAAUGAGCAAUGGUGAUGCCACACAGAGUGGUAGGGAAAUGACUAGCCAACAGAGGAUUGAGCAUCA
# B9: ENSG00000198589:be:win_1701|CDS|ENSG00000198589|bound_else_gene|NA|bound_elsewhere_windowed (ssRNA)
# RNA: GGGAGUUCUACAGUCCGACGAUCAUUGUGUGAUCACGUUCUUCUUAAUCCUGCCAUAUGGAUUCAUACCCCAGCCAAGGUUCAACUGAUGCUCUAUACUUAUCUGUCCACGGAAUUCAUUGGUACAGUCAACAUAUAUAACACCAACAGAGGAUUGAGCAUCA
# B10: chr11:10797513:10797714:-|3pUTR|ENSG00000110321|msi1_unk|FALSE|overlapping (ssRNA)
# RNA: GGGAGUUCUACAGUCCGACGAUCUUCUGCAUAAGGUUUUUUUGUAGUGUAAUGUCUUAAUCAUAGUCUACCAUCAAAUAUUUUAGGAGUAUCUUUAAUGUUUAGAUAGUAUAUUAGCAGCAUGCAAUAAUUACAUCAUAAGUUCAACAGAGGAUUGAGCAUCA
# B11: ENSG00000107863:be:win_3701|CDS|ENSG00000107863|bound_else_gene|NA|bound_elsewhere_windowed (ssRNA)
# RNA: GGGAGUUCUACAGUCCGACGAUCUCUUCACAAAUGAUAAAUAUGCUGAUUUUAUUGAAGCCAAUCGUAAAGAAGAUCCUCUAGAUCGUCUGAAAACAUUAAAAAGACUAAUUCACGAUUUGCCUGAACAUCAUUAUGAAACACCAACAGAGGAUUGAGCAUCA
# B12: chr6:43570573:43570674:-|CDS|ENSG00000124571|unk|total|mutant (ssRNA)
# RNA: GGGAGUUCUACAGUCCGACGAUCGGUGCCGGAAACACAGACAGAAUUGGUGAUGUUUAUCCUUUUGCGACUGGCAGAGGAUGCCGUGACUUUUCAGACACUUCCCCCUCAAAGAAGAAGGGACAUCCAGCAAACAUUAACCCACAACAGAGGAUUGAGCAUCA
# B13: chr7:107760707:107760808:+|3pUTR|ENSG00000105879|unk|total|mutant (ssRNA)
# RNA: GGGAGUUCUACAGUCCGACGAUCAAACAUGAAAUAUGCCGUAUGCAGAUAUCAUUUAUCCGACCGUUUGCCGUGUAUACAUUCCGAACAUACUUCUUUUGACAAAGGGUGAUCUGAUUGCUAAUUUACCAUUUUAUUCUGUCACAACAGAGGAUUGAGCAUCA
# B14: ENSG00000135018:stop:overlap|stop_codon|ENSG00000135018|stop_codon|NA|stop_codon (ssRNA)
# RNA: GGGAGUUCUACAGUCCGACGAUCUAGCAACAGGAGGUGAUAUCAAUGCAGCUAUUGAAAGGUUACUGGGCUCCCAGCCAUCAUAGCAGCAUUUCUGUAUCUUGAAAAAAUGUAAUUUAUUUUUGAUAACGGCUCUUAAACUUUCAACAGAGGAUUGAGCAUCA
# B15: ENSG00000140564:stop:overlap|stop_codon|ENSG00000140564|stop_codon|NA|stop_codon (ssRNA)
# RNA: GGGAGUUCUACAGUCCGACGAUCGCACGGCACACGGUGUGCGGGGGAAGUGGCUGCGGUGGCCAACAACGGUGUCUGUGGUGUAGGUGUGGCCUACAACGCCCGCAUUGGAGGGGUGCGCAUGCUGGAUGGCGAGGUGACAGACAACAGAGGAUUGAGCAUCA
# B16: chr6:26414640:26414744:+|3pUTR|ENSG00000026950|unk|FALSE|unique (ssRNA)
# RNA: GGGAGUUCUACAGUCCGACGAUCCAGGCAGAGCAAAUACCCUAGAGAUUCUCUGUGAUAUAGGAAAUUUGGAUGAAGGGAGCUAGAAGAAAUACAGGGAUUUUUUUUUUUUUUUAAGAUGGAGUCUUACUCUGUUGCUAGGCUCAACAGAGGAUUGAGCAUCA
# B17: chr17:81921741:81921842:-|3pUTR|ENSG00000197063|msi1|FALSE|unique (ssRNA)
# RNA: GGGAGUUCUACAGUCCGACGAUCAAUUAUAUGUUUAAAAGUUAAAGAAAAAAGAGCUGCAGAGUAUUUAUAAAACUGUCUUUUAGAAAAAAAACAAGCAAGAAGACCAUUUGACCAUAUGAAUGGAAAAGGGAAGAAAGUAUACAACAGAGGAUUGAGCAUCA
# B18: chr2:48962156:48962732:-|three_prime_utr|ENSG00000170820|control|control|control (ssRNA)
# RNA: GGGAGUUCUACAGUCCGACGAUCUAUUCCUGGCAUACCUUUAAGGUAAAUUGGUCAGGAACUAUUAAUUCCAUGUGAUACAUUAGGAAGCUGAAUUAUUAGUAACAACAAUAAUAAUUAAAGAAUGCAAUACUGUAUUACAUACAACAGAGGAUUGAGCAUCA
# B19: chr12:39369705:39369875:-|CDS|ENSG00000139116|unk|total|mutant (ssRNA)
# RNA: GGGAGUUCUACAGUCCGACGAUCGGGUAUUAUUUCUCGAGCUGUUAAACACCUUUUUAAGAGUAUUGAAGAAAAAAAACACACCGCAAUUAAAAAUGGGCUUCCUGCUCCAGAUUUUAAAGUGAAUGCCCAAUUCUCCGAGGUCAACAGAGGAUUGAGCAUCA
# B20: chr15:49644301:49644402:+|3pUTR|ENSG00000104047|msi1|total|mutant (ssRNA)
# RNA: GGGAGUUCUACAGUCCGACGAUCAAUAAUUGAAGCCUACCUGCCCGUGGCCAUCUCUGCUGCCAGGUGAAAAGAGCCUGACUCCGAAUGAAGUCAGCGAAGGAAAGCAGAGUGGAGAGAAAAAGAGAGACUGAGUCCUGAUGACAACAGAGGAUUGAGCAUCA
# B21: chr17:30194318:30198530:-|three_prime_utr|ENSG00000108576|control|control|control (ssRNA)
# RNA: GGGAGUUCUACAGUCCGACGAUCCCAGACUCAAGGCCUCCAGCCACUUAUUUCCAUGGAUUCCCCUGGACAUAUUCCCAUGGUAGACUGUGACACAGCUGAGCUGGCCUAUUUUGGACGUGUGAGGAUGUGGAUGGAGGUGAUCAACAGAGGAUUGAGCAUCA
# B22: chr13:30280108:30280219:-|CDS|ENSG00000102781|unk|total|mutant (ssRNA)
# RNA: GGGAGUUCUACAGUCCGACGAUCUAAGGUUCGGCAGGAAUUAUUGGAGGAAUAUGAACAAGUUAAAAGUAUUGUCAGCACUUCCGAAAGUUUUAAAAUUGACAAGCCUCCAGAUUUCCCUGUGUCCUGUCAAGAUGAACCAUUCAACAGAGGAUUGAGCAUCA
# Biological target: MSI1 full-length (mouse, UniProt Q61474 1-362)
# UniProt Q61474, sequence (Q61474 whole entry): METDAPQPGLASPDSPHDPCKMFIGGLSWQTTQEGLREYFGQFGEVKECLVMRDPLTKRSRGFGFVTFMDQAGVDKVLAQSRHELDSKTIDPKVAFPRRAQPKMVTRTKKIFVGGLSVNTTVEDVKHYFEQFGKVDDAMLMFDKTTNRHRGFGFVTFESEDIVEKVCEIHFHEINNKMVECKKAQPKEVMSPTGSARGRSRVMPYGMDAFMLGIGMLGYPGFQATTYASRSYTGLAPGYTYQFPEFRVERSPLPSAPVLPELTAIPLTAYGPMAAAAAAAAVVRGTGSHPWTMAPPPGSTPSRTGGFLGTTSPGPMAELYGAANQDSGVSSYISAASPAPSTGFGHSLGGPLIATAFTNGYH
# Assay: nsRBNS (natural sequence RNA bind-n-seq); RBNS binding buffer (assumed for nsRBNS): 25 mM Tris pH 7.5, 150 mM KCl, 3 mM MgCl2, 0.01% Triton X-100, 500 ug/ml BSA, 20 U/ml SUPERase-In, 4 C; UNK is unkempt and MSI1 is Musashi-1; names of the RNAs are library labels; protein concentration not given here; high values mean tight binding
row,Binder,binding signal [enrichment R]
1,B1,1.01
2,B2,0.624
3,B3,0.877
4,B4,4.78
5,B5,0.301
6,B6,0.357
7,B7,0.293
8,B8,0.97
9,B9,0.327
10,B10,4.18
11,B11,0.374
12,B12,0.4
13,B13,0.319
14,B14,0.35
15,B15,7.13
16,B16,2.25
17,B17,7.59
18,B18,0.538
19,B19,0.865
20,B20,0.424
21,B21,0.409
22,B22,0.268
